In article PMC12136788:
The other results are listed elsewhere or left out.

T1: UNK ZnF1-3 (human, UniProt Q9C0B0 31-174)
T1 sequence: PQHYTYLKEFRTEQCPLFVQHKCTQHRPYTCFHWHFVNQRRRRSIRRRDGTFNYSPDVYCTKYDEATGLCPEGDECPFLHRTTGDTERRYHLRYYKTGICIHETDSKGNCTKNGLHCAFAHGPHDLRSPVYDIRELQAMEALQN

B1: chr7:63200040:63200041:-_ENSMUSG00000030452_ENSMUST00000032635|mus_hu|FALSE|FALSE (ssRNA)
RNA: GGGAGUUCUACAGUCCGACGAUCAUUUCGUUUGUUACUUAAGGAGUUCCUGUGAAUCACAUUGAUCACAGAACAGAGAAACCGCUGGUACUAGAGGCAGAAUGAAGCAGUCUUCAAACCCUAGUCGGCCGGCCGGCCGCGCGGCAACAGAGGAUUGAGCAUCA
B2: chr8:92090715:92090716:+_ENSG00000155100_ENST00000285420|hu_hu|FALSE|FALSE (ssRNA)
RNA: GGGAGUUCUACAGUCCGACGAUCUUUCAGUUGAUCUUCAAUGGCUUUAUACAUACAGUGGCCAUCAGAUGGAAUCUGUUUAAUUUCUAACUGUCUAGCUGCCAAUAUUUGAGCAAGUUUCUCACUUUCCAUAUGUCUGGCUCCCAACAGAGGAUUGAGCAUCA
B3: chr3:10015032:10015033:+_ENSMUSG00000027533_ENSMUST00000029046|mus_mus|mus_mus_mus_hu_True|58_88 (ssRNA)
RNA: GGGAGUUCUACAGUCCGACGAUCGUUUUUACCAUCACAAGUGAUGAUACAGUCUGGCUUGGCCAUUGCGCCCAUUUUCCUAAGAGCUAUUCCCACUCCUAGCUCCUUCAUGUAUUCAUCAAAGCCUUUGCUGUCCACCAGGCGCAACAGAGGAUUGAGCAUCA
B4: chr7:138713503:138713504:-_ENSG00000146858_ENST00000275766|hu_hu|FALSE|FALSE (ssRNA)
RNA: GGGAGUUCUACAGUCCGACGAUCUGUAUUUUCAAGCAUCUUGUGCAGCUUCAUAUGCUUGUAGGUGGAGAUUAUCUGAAAAUUAACAACACUUGGAAUAUUCAGUCCUUGGUCCUGUAGCAGCUUCAAAGAUGCAGCAUGGAUCAACAGAGGAUUGAGCAUCA
B5: 102310474_102310594_3790_3pUTR_ENSG00000166135_ENST00000299163|human|control|control (ssRNA)
RNA: GGGAGUUCUACAGUCCGACGAUCACCAAGACCCUUAGUGCCAUCUAGAACUACAGCUUCAGUUCUAUAGAUGCAAAAGCAUGCCGGGAGGAGUUAUGGGUCCUAUUCAAGGACACAUAAGUAAUGCAAUUAGACACAGAACUCCAACAGAGGAUUGAGCAUCA
B6: chr5:33461064:33461065:+_ENSG00000113407_ENST00000502553|hu_hu|motif|central (ssRNA)
RNA: GGGAGUUCUACAGUCCGACGAUCGGUGAGUCCUGUGAGUGCUCCAGACAGCUCGUUCCUAUGAAGUACCCCAAAAUCAGCGGGCCGCAGAGGCAGUUCUCGCCAGGACCUUGGCCGAUGAUCAAACAUAAGGCAGUGUCCUGGCAACAGAGGAUUGAGCAUCA
B7: chr18:34480306:34480307:+_ENSMUSG00000005871_ENSMUST00000115781|mus_mus|FALSE|FALSE (ssRNA)
RNA: GGGAGUUCUACAGUCCGACGAUCCUUUUACUUCUAACAUUAAUUUCUUAAAACAUGAAUUAAAAGGCAAUUGUAUUCUAACUAAAACCUCAUCUCUUUCCACAAAACUACUUGAAGUGCCUUAUAAAAACUGACGUGCAGUAACAACAGAGGAUUGAGCAUCA
B8: chr5:176562935:176562936:+_ENSG00000165671_ENST00000439151|hu_hu|motif|central (ssRNA)
RNA: GGGAGUUCUACAGUCCGACGAUCGGUACUGGAAUCUGGAUCAUCCUGAAAAGAUAAAUUUAUUGAGUUUAAUUGCUCUUCGGUUGUAAUGUUUGUGUCUCCUAGUGAAAAGGGGGCUGGGAGAAGGGCUGCUUUUUCAUUGCUCAACAGAGGAUUGAGCAUCA
B9: chr4:6320793:6320794:+_ENSMUSG00000028249_ENSMUST00000103008|mus_hu|FALSE|FALSE (ssRNA)
RNA: GGGAGUUCUACAGUCCGACGAUCAGCAGGCAUGAUUGUAAUAGUAACUACAGUCCCAGAUGUUGACAGUAUGUCUGCAAUUUGAGAGUCCUUCAAUCCAAUGACAUUCUGUCCAUUGAUUUCACAGAUGUUAUGUUCCGUGAGCAACAGAGGAUUGAGCAUCA
B10: chr9:74905015:74905016:+_ENSMUSG00000007656_ENSMUST00000169492|mus_mus|FALSE|FALSE (ssRNA)
RNA: GGGAGUUCUACAGUCCGACGAUCUGUGUUUGGAUUAUGUGACUUGUCUUCCAACUCGUGGUCUUAAACUUCUGUCUUACAAGAUUCAAAAGGAAGAUACAGAAGAAAUCAAUACAACAGAGGUCCUGUUAAAUAAGAGUAACACAACAGAGGAUUGAGCAUCA
B11: chr9:14812383:14812384:-_ENSMUSG00000031934_ENSMUST00000164273|mus_mus|mus_mus_mus_hu_True|78_108 (ssRNA)
RNA: GGGAGUUCUACAGUCCGACGAUCAUAGCUCAAGUAGAUACACGCUAACAGUAUAAUCACAAAUGUCAGCAGGCGGCAGCUAAUGUACUUGAUGAUUAAAUUAUUAGAAUUUUUCUUUGUCUUCAAGUACUGCUCCACAAUUGGCAACAGAGGAUUGAGCAUCA
B12: 19955215_19955335_1846_CDS_ENSG00000166833_ENST00000396085|human|control|control (ssRNA)
RNA: GGGAGUUCUACAGUCCGACGAUCGUCCAGCCUCUCCGUCACAGAGGCUCUCUUGGCAAGGUCCUUGCUUUUCUCCUUAUCCUUCUCCCGCUGUUGUUUCUCCUUCUCUUUCUCAUUGCCUUUCAGAGAACUCUUCUUGUUGGUCAACAGAGGAUUGAGCAUCA
B13: chr12:39763582:39763583:-_ENSG00000139116_ENST00000544797|hu_mus|hu_hu_hu_mus_False|8_48 (ssRNA)
RNA: GGGAGUUCUACAGUCCGACGAUCCUCUAGGAACUGGGCAUUCACUUUGAAUUCAGGAGGGGGCAGCCCGUUUUUAAUCGCUGAGGUUUUUUUUUCUUCAAUACUCUUGAACAGGUGUCUAACAGCACGAGAAAUAAUGCCCUGCAACAGAGGAUUGAGCAUCA
B14: 148364729_148364849_12330_CDS_ENSMUSG00000025261_ENSMUST00000112622|mouse|control|control (ssRNA)
RNA: GGGAGUUCUACAGUCCGACGAUCGUAGCACUCCAGGAGGCGGUUGUCAUAUACAGCUUUGGCUACAAUUCGUCCAACAAACUUGAAGUAGCUGAGGUGGUUGGGGUUACAGUGGGAAGAUGGAUUGAUGGUGUAGGUGACCCGCAACAGAGGAUUGAGCAUCA

biological target: T1, UNK ZnF1-3; test: nsRBNS (natural sequence RNA bind-n-seq); RBNS binding buffer (assumed for nsRBNS): 25 mM Tris pH 7.5, 150 mM KCl, 3 mM MgCl2, 0.01% Triton X-100, 500 ug/ml BSA, 20 U/ml SUPERase-In, 4 C; UNK is unkempt and MSI1 is Musashi-1; names of the RNAs are library labels; protein concentration not given here; high values mean tight binding

Binder	binding signal
B1	1.03 enrichment R
B2	0.677 enrichment R
B3	0.677 enrichment R
B4	0.952 enrichment R
B5	0.923 enrichment R
B6	0.791 enrichment R
B7	0.824 enrichment R
B8	1.23 enrichment R
B9	0.992 enrichment R
B10	1.4 enrichment R
B11	0.974 enrichment R
B12	0.391 enrichment R
B13	1.53 enrichment R
B14	1.46 enrichment R
